Results as given in PubChem BioAssay AID485297 (National Center for Advancing Translational Sciences (NCATS), 2010).
Hit rate of the full screen: of about 320,000 compounds, about 9,100 (2.8%) were called active. The inconclusive results got no clear call from the source; some entries with a clear call stand among them for comparison. The call rests on the fitted dose curve; in most records, active means well fitted activation curve with a large enough effect; inconclusive means small, poorly fitted or top-dose-only effect; inactive means no such curve, though single readings can be large or run the other way. No potency is given beside an inconclusive call; the fits are too rough.

experiment: qHTS Assay for Rab9 Promoter Activators; conditions: Huh7 Rab9 promoter-luciferase reporter, luminescence, 24 h; series mostly up to 9.22 µM; activation, negative = inhibition: at the top concentration; further: nearly all actives have a fitted effect of over 60% in size; on activation, negative = inhibition: % of control where 0% means no effect
In short: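 Stable Rab9-luc Huh7, 1500 cells/well, 2 h settle; cmpd in DMSO, 24 h, 37 °C/5% CO2; luciferase reagent 10 min RT; luminescence.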
Potency means the concentration at half of the fitted maximal effect; tags describe the fitted curve by direction and shape.

Row | SMILES | activation, negative = inhibition | Potency
1 | CCc1ccc2[nH]c(=O)c(C3C(C#N)=C(N)Oc4c3ccc3cccnc43)cc2c1 (centres undefined) | inactive: 2.5% | 
2 | Cc1cccc(OCC(=O)Nc2ncn[nH]2)c1C |  | inconclusive [activator, single point]
3 | Brc1ccc(C2Nc3cccc4cccc(c34)N2)s1 |  | inconclusive [activator, single point]
4 | Brc1ccc(-c2nc(-c3ccncc3)no2)cc1 |  | active: 3.16 µM
5 | CCOC(=O)/C=C(\C)N1N=C(c2ccccc2)CC1c1ccccc1 (centres undefined) |  | inconclusive [activator, partial curve]
6 | Cc1ccc(S(=O)(=O)NNC(=O)Nc2ccccc2F)c(C)c1 | inactive: -6.95% | 
7 | CCn1cc(CCC(=O)NC2CCCC2)c2ccccc21 | inactive: 9.89% | 
8 | N/C(=N\OC(=O)c1cc(Cl)ccc1Cl)c1ccccn1 |  | active: 5.01 µM
9 | COC(=O)CSc1nc2cc3c(cc2cc1C)OCO3 |  | inconclusive [activator, partial curve, poor fit]
10 | CC(C)CCOCC(=O)Nc1cccc(C(=O)O)c1 |  | active: 0.501 µM
11 | CC1CCCCN1C(=O)c1cc(-c2ccc3c(c2)OCO3)on1 (centres undefined) |  | active: 0.891 µM
12 | Cc1cc2nc(C)n(CCCNC(=O)Nc3ccccc3)c2cc1C | inactive: -2.07% | 
13 | CCCCN=C1NN=C(c2ccc(C)c(C)c2)CS1 |  | active: 1.58 µM
14 | C/C(=N\NC(=O)c1cccc(N/N=C(\C)c2ccccc2)c1)c1ccccc1 |  | inconclusive [activator, partial curve]
15 | CCOC(=O)/C(C#N)=C/N=c1ccc(C)cn1C |  | inconclusive [activator, partial curve]
16 | CC(C)(C)C(=O)CN1C2=NCCCN2c2ccccc21 | inactive: 5.55% | 
17 | O=C(c1ccc(CSc2ccc(Cl)cc2)cc1)N1CCCC1 |  | inconclusive [activator, single point]
18 | Cc1ccc(CCNS(=O)(=O)c2cc3c(cc2C)NC(=O)CO3)cc1 |  | inconclusive [activator, partial curve]
19 | Cc1ccc2nc(NC(=O)CSc3nnc(C)c(=O)n3N)sc2c1 |  | inconclusive [activator, single point]
20 | c1ccc2[nH]c3cc4ncnc4cc3nc2c1 |  | inconclusive [activator, single point]
21 | Fc1cccc(F)c1CSc1nc2ccccc2[nH]1 |  | active: 1 µM
22 | COc1cccc(CNC(=O)c2ccc(C3SCCS3)cc2)c1 | inactive: 5.79% | 
23 | Cc1ccc(-n2c(C)cc(/C=C(\C#N)C(=O)NCC3CCCO3)c2C)cc1 (centres undefined) |  | active: 3.98 µM
24 | CC(C)c1ccc(NC(=O)c2cccnc2)cc1 |  | active: 3.98 µM
25 | N=C1C(c2nc3ccccc3[nH]2)=C(O)CN1c1ccccc1 |  | inconclusive [activator, single point]
26 | CCOC(=O)Cc1csc(SCC(=O)NC2CCC(C)CC2)n1 (centres undefined) | inactive: 0.537% | 
27 | CCCOc1ccc(/C=N/NC(=O)CSc2ccccn2)cc1OC |  | inconclusive [activator, single point]

Row | SMILES | activation, negative = inhibition | Potency
28 | O=C(CSc1ccc(F)cc1)Nc1ccc(C2SCCS2)cc1 |  | inconclusive [activator, partial curve]
29 | Cn1ccnc1SCc1cn2ccccc2n1 |  | active: 3.16 µM
30 | CCCOc1ccc2cc(-c3ccccn3)c(=O)oc2c1 |  | active: 0.447 µM
31 | COc1ccc(CNC(=O)CCn2c(C)csc2=O)cc1 | inactive: -0.0145% | 
32 | O=[N+]([O-])c1c(C(Cl)Cl)nn(-c2ccccc2)c1N1CCOCC1 | inactive: -7.45% | 
33 | Cc1ccccc1NC(=O)c1cc2ccccc2o1 |  | inconclusive [activator, partial curve]
34 | COc1ccc(CC(=O)Nc2cc3oc4ccccc4c3cc2OC)cc1 |  | inconclusive [activator, single point]
35 | CC1CCCN(C(=O)Cn2nnc(-c3ccccc3F)n2)C1 (centres undefined) |  | inconclusive [activator, partial curve]
36 | COc1ccc(C2Nc3ccccc3C(=O)N2c2ccc(C)cc2)cc1Cn1nc(C)c([N+](=O)[O-])c1C (centres undefined) |  | inconclusive [activator, partial curve]
37 | OC1CCCCC1Sc1nc2ccccc2s1 (centres undefined) |  | inconclusive [activator, single point]
38 | COc1ccc(Nc2oc(COc3cccc(C)c3)nc2C#N)cc1 |  | inconclusive [activator, partial curve]
39 | Cc1ccc(N/N=C/c2cccnc2)cc1 |  | inconclusive [activator, partial curve]
40 | CC(=O)NCc1ccc(S(=O)(=O)N2CCN(S(=O)(=O)c3ccc4ccccc4c3)CC2)cc1 | inactive: -1.9% | 
41 | CC1CCc2c(sc3ncnc(SCC(=O)c4ccccc4)c23)C1 (centres undefined) | inactive: 22.3% | 
42 | NC(=O)c1ccccc1NC(=O)CCc1ccccc1 |  | inconclusive [activator, single point]
43 | O=C(CNS(=O)(=O)c1ccccc1)N1CCc2ccccc2C1 |  | inconclusive [activator, partial curve]
44 | O=C(NCCC1=CCCCC1)c1ccc([N+](=O)[O-])cc1 |  | active: 0.631 µM
45 | CC(C)c1ccc(/C=C2\SC(=O)N(CC(=O)NC3CCS(=O)(=O)C3)C2=O)cc1 (centres undefined) |  | inconclusive [activator, partial curve]
46 | c1ccc(-c2nnc(SCc3cn4ccsc4n3)o2)cc1 |  | inconclusive [activator, single point]
47 | Cn1c(Cc2cccs2)nnc1SCC(=O)Nc1ccc(F)cc1F | inactive: -3.42% | 
48 | CC(C)c1ccc(O)c(NC(=S)NC(=O)c2ccc3c(c2)OCO3)c1 |  | inconclusive [activator, partial curve]
49 | Cc1ccc(/C=C/C(=O)Nc2cc(=O)n(C)c(=O)n2C)o1 |  | inconclusive [activator, single point]
50 | O=C(COc1ccc([N+](=O)[O-])cc1)NC(C(=O)O)C(O)c1cccc([N+](=O)[O-])c1 (centres undefined) | inactive: -12.8% | 
51 | CC1CCN(C(=O)CS(=O)(=O)Cc2ccccc2)CC1 |  | inconclusive [activator, partial curve]
52 | COc1ccc2cc(CCNC(=O)c3ccco3)c(=O)[nH]c2c1 |  | active: 1.41 µM
53 | COc1ccccc1C(=O)Nc1cc(C)on1 |  | inconclusive [activator, partial curve]
54 | O=c1sc2ccccc2n1CCCOc1ccccc1 |  | active: 2.51 µM

Row | SMILES | activation, negative = inhibition | Potency
55 | CC1Sc2ccc(C(=O)Nc3ncccc3O)cc2NC1=O (centres undefined) |  | active: 0.891 µM
56 | CC1=Nn2c(nc3sc4c(c3c2=O)CCCC4)SC1 |  | inconclusive [activator, single point]
57 | CCOc1ccc2oc(C(=O)NCC3CCCO3)c(C)c2c1 (centres undefined) |  | active: 2.82 µM
58 | CC(C)OC(=O)c1ccc(COC(=O)c2cccc(-c3nnc(-c4ccccc4)o3)c2)cc1 |  | active: 2.51 µM
59 | COc1ccc(-c2noc(-c3ccoc3C)n2)cc1 |  | active: 1.58 µM
60 | O=C(OCC(=O)c1ccc[nH]1)c1ccccc1 |  | inconclusive [activator, partial curve]
61 | CCc1nnc(NC(=O)c2ccc(C)o2)s1 |  | inconclusive [activator, partial curve]
62 | CCOC(=O)CNC(=O)CSc1ncnc2c1cnn2-c1ccc(Cl)cc1 | inactive: -2.16% | 
63 | CC(C)N1C(=O)CN(C2CCCCCC2)C(=O)C1c1ccccc1F (centres undefined) |  | inconclusive [activator, partial curve]
64 | N#Cc1ccc(CN2CCN(C(=O)CN3C(=O)NC4(CCCC4)C3=O)CC2)cc1 | inactive: -8.5% | 
65 | Cn1c(C(=O)Nc2ccc3c(c2)OCCO3)cc2sccc21 |  | active: 1.12 µM
66 | O=C1NC(c2cccc(Br)c2)=N/C1=C\c1ccco1 |  | inconclusive [activator, single point]
67 | COc1cccc2sc(NC(=O)c3ccc(Br)s3)nc12 |  | inconclusive [activator, single point]
68 | CC(C)C(=O)Nc1nc2cc3c(cc2s1)OCO3 |  | inconclusive [activator, partial curve]
69 | Cc1cc(NC(=O)c2coc(=O)c(Br)c2)ccc1C(C)C |  | inconclusive [activator, partial curve]
70 | Brc1ccc(-c2cn3nc4c(nc3n2)CCCC4)cc1 |  | active: 0.282 µM
71 | O=C(O)c1cncc(C#CCC2CCCCC2)c1 |  | active: 2.82 µM
72 | O=C1CCCC/C1=C\Nc1ccc(C(=O)O)c(O)c1 |  | inconclusive [activator, single point]
73 | Cc1ccc(NC(=O)Nc2nnc(-c3ccccc3F)s2)cc1 |  | inconclusive [activator, partial curve]
74 | CCOc1ccc(C(=O)Nc2cccc(C(=O)O)c2)cc1Cl |  | inconclusive [activator, partial curve, poor fit]
75 | C/C(N)=C(/C#N)C(=O)CSc1nc2ccccc2[nH]1 |  | inconclusive [activator, partial curve]
76 | CCOc1cccc(/C=C/c2cc(C(=O)O)c3ccccc3n2)c1OC |  | active: 4.47 µM
77 | CCCc1nc2ccccc2c(=O)n1/N=C/c1ccc(O)cc1 |  | inconclusive [activator, single point]
78 | CC(=O)N1CCN(C(=O)CSc2cc(C)c(Br)cc2C)CC1 |  | inconclusive [activator, single point]
79 | Cn1c(=O)c(C(=O)Nc2ncccc2O)c(O)c2ccccc21 |  | inconclusive [activator, partial curve]
